# Where “and” joins values, the source holds several entries; their conditions need not be identical. Identical values can stand only once. Out of some 400,000 compounds screened, about 2,200 (0.55%) were called active. Inconclusive results (about 1%) are left out. The call rests on the fitted dose curve; in most records, active means well fitted inhibition curve with a large enough effect; inconclusive means small, poorly fitted or top-dose-only effect, or another doubt; inactive means no such curve, though single readings can be large or run the other way. Only a part is listed here, and it is no random draw. A structure can be active in one record and inactive in another.
# Target: DNA polymerase kappa (Homo sapiens) (UniProt Q9UBT6)
# Chain of UniProt Q9UBT6 (Q9UBT6 whole entry, looked up): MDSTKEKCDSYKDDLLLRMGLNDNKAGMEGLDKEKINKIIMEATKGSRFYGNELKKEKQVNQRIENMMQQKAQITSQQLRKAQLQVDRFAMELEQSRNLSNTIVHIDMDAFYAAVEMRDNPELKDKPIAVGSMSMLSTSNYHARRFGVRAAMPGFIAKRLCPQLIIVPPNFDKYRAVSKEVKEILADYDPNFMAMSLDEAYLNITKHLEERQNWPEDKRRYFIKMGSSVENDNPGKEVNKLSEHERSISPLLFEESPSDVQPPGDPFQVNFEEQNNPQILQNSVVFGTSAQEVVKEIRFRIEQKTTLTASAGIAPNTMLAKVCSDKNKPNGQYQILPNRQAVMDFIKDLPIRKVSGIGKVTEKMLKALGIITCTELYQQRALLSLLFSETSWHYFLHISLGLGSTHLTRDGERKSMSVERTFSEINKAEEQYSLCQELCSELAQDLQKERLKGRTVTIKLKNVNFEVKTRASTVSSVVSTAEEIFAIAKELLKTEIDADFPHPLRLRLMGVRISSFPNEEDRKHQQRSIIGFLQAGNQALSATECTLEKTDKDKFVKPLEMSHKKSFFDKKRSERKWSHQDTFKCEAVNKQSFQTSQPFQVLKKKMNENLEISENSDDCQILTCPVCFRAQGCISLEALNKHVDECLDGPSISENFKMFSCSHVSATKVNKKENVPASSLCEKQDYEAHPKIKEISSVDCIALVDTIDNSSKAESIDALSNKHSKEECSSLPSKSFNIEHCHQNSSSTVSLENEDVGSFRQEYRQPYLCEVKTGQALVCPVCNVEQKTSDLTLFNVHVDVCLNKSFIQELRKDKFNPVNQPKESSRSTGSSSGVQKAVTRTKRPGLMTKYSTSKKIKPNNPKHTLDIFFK
# Assay: qHTS for Inhibitors of Polymerase Kappa
# Settings: purified Pol kappa, fluorescent DNA synthesis assay, 10 min; series mostly up to 107 µM; activity, negative = inhibition: at the top concentration
# Method in brief: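 Activity was followed as the change in fluorescence between reads at 0 and 10 min after starting the reaction with 50 nM substrate. Beforehand, 10 nM polymerase had been preincubated with compound for 15 min at room temperature.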
# On the % scale 0 is the no-effect control and ±100 the full control effect; potency means the concentration at half of the fitted maximal effect.
SMILES,Potency,"activity, negative = inhibition"
CC(=O)Oc1cc2cccc(OC(C)=O)c(=O)c2c(OC(C)=O)c1OC(C)=O,active: 1 µM,–
CCOC(=O)[C@@H]1[C@H]2COc3cc(OC)ccc3[C@@H]2N2C(=O)N(c3cccc(F)c3)C(=O)[C@@]12C,–,inactive: 11.4%
N.N.O=C(O)C1(C(=O)O)CCC1.[Pt],active: 22.4 µM,–
NC(=O)[C@@H]1CCCN1C(=O)[C@@H](Cc1cnc[nH]1)NC(=O)[C@@H]1CCC(=O)N1,–,inactive: -0.251%
Cc1cc(-c2csc(N)n2)c(C)n1Cc1ccco1,active: 10 µM,–
O=C1C(SCCO)=C(SCCO)C(=O)c2ccccc21,inactive,–
COc1cc(/C=C/C(=O)CC(=O)/C=C/c2ccc(O)c(OC)c2)ccc1O,inactive,–
O=C(CSc1nc(NS(=O)(=O)c2ccccc2)cc(=O)[nH]1)Nc1ccc(F)cc1,active: 50.1 µM,–
CCC(=O)NC1CCc2cccc(OC)c2C1 (stereo not drawn),–,inactive: -0.283% [at 19.4 µM]
CCCC1Nc2ccc(C(=O)O)cc2C2C=CCC12 (stereo not drawn),active: 35.5 µM,–
N[C@@H](CSSC[C@H](N)C(=O)O)C(=O)O,–,inactive: 21.6% [at 60.1 µM]
N#CCC(=O)c1sccc1-n1cccc1,active: 79.4 µM,–
O=C(O)C(c1ccccc1)N1C(=O)/C(=C\c2ccc(O)c(O)c2)SC1=S (stereo not drawn),active: 7.08 µM,–
CCCCCN=C(N)N/N=C/c1c[nH]c2ccc(OC)cc12,inactive,–
OC[C@@H]1[C@@H](c2ccccc2)C(c2ccccc2)=NN1c1ccccc1,–,inactive: -1.45%
O=C(O)c1ccc2c(c1)C(=O)/C(=C\c1ccco1)C2=O,active: 8.91 µM,–
Oc1c(Br)cc(Br)cc1/C=N/c1nc2c(s1)CCCC2,active: 79.4 µM,–
C=C1C(=O)OC(CCCCCCCC)C1C(=O)O (stereo not drawn),–,inactive: 12.8% [at 60.1 µM]
O=[N+]([O-])c1cccc2c[nH]nc12,active: 12.6 µM,–
OC[C@@H]1[C@@H](c2ccccc2)C(c2cccc(Cl)c2)=NN1c1ccccc1,–,inactive: -2.03%
CSc1ccc2c(c1)[C@H](N1CCN(C)CC1)Cc1ccccc1S2,–,inactive: -4.65% [at 12 µM] and inactive: -11.9% [at 19.4 µM]
Cc1ccc(/C=C2\C(=O)ON=C2c2ccccc2)o1,–,inactive: -1.14%

SMILES,Potency,"activity, negative = inhibition"
NC(N)=NCCC[C@H](N)C(=O)NCC(=O)N[C@@H](CC(=O)O)C(=O)O,–,inactive: 15.5% [at 60.1 µM]
O=C(NC1CCN(CCc2c[nH]c3ccccc23)CC1)c1ccccc1,inactive,–
O=C(NNC(=O)c1cc2cc3ccccc3nc2s1)c1cccc(Cl)c1,active: 79.4 µM,–
Cc1cc(N)c2ccccc2[n+]1CCCCCCCCCC[n+]1c(C)cc(N)c2ccccc21,–,inactive: -10% [at 12 µM]
Nc1nc2ncc(CNc3ccc(C(=O)NC(CCC(=O)O)C(=O)O)cc3)nc2c(=O)[nH]1 (stereo not drawn),inactive,–
Cc1ccc(N(CC(=O)NCc2ccc(F)cc2)S(=O)(=O)c2c(C)nn(C)c2C)cc1,–,inactive: 11.5%
N#CC(C#N)=C(N)/C(C#N)=C/c1cc(O)c(O)c(O)c1,active: 0.794 µM,–
C=CCc1cccc(C=NNC(=O)CN2CCN(Cc3ccccc3)CC2)c1O,–,inactive: -2.1% [at 60.1 µM]
Nc1ccc2nc(-c3cccc(-c4nc5ccc(N)cc5[nH]4)n3)[nH]c2c1,active: 56.2 µM,–
N#C/C(=C\c1ccc(O)c(O)c1)C(=O)NCc1ccccc1,inactive,–
CN(C)CCCn1c2c3ccccc3ccc2c2oc(=O)c3ccccc3c21,–,inactive: -22%
O=c1cc(-c2cc(O)c(O)c([C@@H]3O[C@H](CO)[C@@H](O)[C@H](O)[C@H]3O)c2)oc2cc(O[C@@H]3O[C@H](CO)[C@@H](O)[C@H](O)[C@H]3O)cc(O)c12,–,inactive: 11.2% [at 60.1 µM]
C[C@@]12CCC3c4ccc(O)cc4CCC3C1CCC2O (stereo partly drawn),–,inactive: -4.52% [at 60.1 µM]
COc1ccc(-c2cc(C)no2)cc1S(=O)(=O)N1CCc2ccccc21,–,inactive: 24%
CCN(CC)CCCCNc1ncc2cc(-c3cc(OC)cc(OC)c3)c(NC(=O)NC(C)(C)C)nc2n1,inactive,–
CCCOc1ccc(C(=O)OCCN(CC)CC)cc1N,–,inactive: -8.48% [at 12 µM]
COC(=O)Nc1ccc2[nH]cc(CCNC(C)=O)c2c1,inactive,–
Cc1cc(C)c(S(=O)(=O)Nc2cccc(C(F)(F)F)c2)c(C)c1,–,inactive: -14.9%
O=C(N/N=C/C=C\c1ccco1)c1cccnc1,active: 79.4 µM,–
COC1C(OC(=O)/C=C/C=C/C=C/C=C/C(=O)O)CCC2(CO2)C1C1(C)OC1CC=C(C)C (stereo not drawn) (tested in a mixture with another compound),–,inactive: -6.33%
O=C(Nc1ccccc1F)c1coc(=O)c(Br)c1,active: 31.6 µM,–
O=C(COC(=O)c1ccccc1)Nc1ncc([N+](=O)[O-])s1,active: 22.4 µM,–

SMILES,Potency,"activity, negative = inhibition"
NS(=O)(=O)c1ccc(NC(=O)/C=C/c2ccco2)cc1,active: 50.1 µM,–
CSc1ccc(/C=C2\C(=N)N3N=C(CC(=O)N4CCCCC4)SC3=NC2=O)cc1,active: 89.1 µM,–
COC(=O)C1=COC(C)C2CN3CCc4c([nH]c5ccccc45)C3CC12 (stereo not drawn),–,inactive: -13.4%
O[C@@H]1[C@@H](O)C=C2CCN3Cc4cc5c(cc4[C@H]1C23)OCO5 (stereo partly drawn),–,inactive: -12.4%
N#Cc1c(N)sc(=S)c2c1CCCCC2,active: 28.2 µM,–
CN(Cc1cnc2nc(N)nc(N)c2n1)c1ccc(C(=O)N[C@@H](CCC(=O)O)C(=O)O)cc1,inactive,–
COc1cc(C2CC(=O)Oc3cc4c(cc32)OCO4)cc(OC)c1OC (stereo not drawn),–,inactive: -5.88%
c1csc(Cc2nn3c(-c4ccncc4)nnc3s2)c1,active: 39.8 µM,–
O=C(O)c1ccc(-c2ccc(/C=C3\NC(=O)N(Cc4ccc(Cl)cc4)C3=O)o2)cc1Cl,active: 4.47 µM,–
CC(C)(C)CC(C)(C)c1ccc(O)c(Cc2ccc(Cl)cc2Cl)c1,–,inactive: -7.12%
c1cncc(CNc2ncnc3ccc(-c4ccoc4)cc23)c1,–,inactive: 9.47%
CC[C@H](C)[C@H](NC(=O)[C@H](Cc1ccc(O)cc1)NC(=O)[C@@H]1CCCN1C(=O)[C@H](CCCN=C(N)N)NC(=O)[C@H](CCCN=C(N)N)NC(=O)[C@@H]1CCCN1C(=O)[C@H](CCCCN)NC(=O)[C@H](CC(N)=O)NC(=O)[C@H](CCC(N)=O)NC(=O)[C@H](Cc1ccc(O)cc1)NC(=O)[C@H](CC(C)C)NC(=O)[C@@H]1CCC(=O)N1)C(=O)N[C@@H](CC(C)C)C(=O)O,–,inactive: 16.1% [at 60.1 µM]
C/C=C/COC(=O)c1[nH]c2c(c1C)C(=O)CC(c1ccco1)C2 (stereo not drawn),active: 79.4 µM,–
CC(O)[C@@H]1NC(=O)[C@H](CCCN)NC(=O)[C@@H](Cc2c[nH]c3ccccc23)NC(=O)[C@H](Cc2ccc(O)cc2)NC(=O)[C@@H](NC(=O)[C@H](N)Cc2ccccc2)CSSC(C)(C)C(C(=O)N[C@H](C(N)=O)[C@@H](C)O)NC1=O (stereo partly drawn),–,inactive: 11.7% [at 60.1 µM]
COc1ccc([C@@H]2CC(=O)c3c(O)cc(O[C@@H]4OC(CO[C@@H]5OC(C)[C@H](O)[C@H](O)C5O)[C@@H](O)[C@@H](O)C4O)cc3O2)cc1O (stereo partly drawn),–,inactive: 1.98%
CC(=O)Oc1ccc2c(c1)Oc1cc(OC(C)=O)ccc1C21OC(=O)c2ccccc21,–,inactive: 117%
CN(Cc1ccco1)S(=O)(=O)c1nnc(NC(=O)c2ccccc2Cl)s1,–,inactive: 6.19%
NCCNS(=O)(=O)c1cccc2cnccc12,inactive,–
CC1CCCN(C(=S)SCC(=O)c2cc(Br)cc(Br)c2O)C1 (stereo not drawn),active: 25.1 µM,–
CC1=C(/C=C/C(C)=C/C=C/C(C)=C\C(=O)O)C(C)(C)CCC1,inactive,–
C/C(=C\c1ccc(C(=O)O)cc1)c1ccc2c(c1)C(C)(C)CCC2(C)C,inactive,–
O=CC(O)C(O)C(O)C(O)CO (stereo not drawn),–,inactive: -11.3% [at 60.1 µM]

SMILES,Potency,"activity, negative = inhibition"
N[C@H](C(=O)N[C@@H]1C(=O)N2C(C(=O)O)=C(Cl)CS[C@@H]12)c1ccccc1,–,inactive: -4.89% [at 12 µM] and inactive: -8.4% [at 12 µM]
CC1=NOC(=O)/C1=C\c1ccc(-c2ccc(Cl)c(C(=O)O)c2)o1,active: 35.5 µM,–
c1coc(-c2nnc3sc(Cc4cccs4)nn23)c1,active: 20 µM,–
Clc1ccc(N2CCN(Cc3c[nH]c4ncccc34)CC2)cc1,inactive,–
CC[C@H](C)[C@H](NC(=O)[C@H](Cc1ccc(O)cc1)NC(=O)[C@@H]1CCCN1C(=O)[C@H](CCCCN)NC(=O)[C@@H](N)CCCCN)C(=O)N[C@@H](CC(C)C)C(=O)O,–,inactive: 17.6% [at 60.1 µM]
CC(C)(C)c1ccc(C(O)CCCN2CCC(C(O)(c3ccccc3)c3ccccc3)CC2)cc1 (stereo not drawn),inactive,–
Cc1cc(=O)oc2c(O)c(O)ccc12,–,inactive: 12.2%
COC(=O)C(N)Cc1ccc(O)c(O)c1 (stereo not drawn),active: 89.1 µM,–
CC(C)S(=O)(=O)C1=NSC2=NC(=O)/C(=C\c3ccc(-c4cccc(C(=O)O)c4)o3)C(=N)N21,active: 28.2 µM,–
COc1cc(-c2noc(C)c2C#Cc2ccsc2)cc(OC)c1OC,–,inactive: -4.66%
CN(C)CCCN1c2ccccc2Sc2ccc(Cl)cc21,inactive,–
N[C@H](Cc1cc(I)c(Oc2cc(I)c(O)c(I)c2)c(I)c1)C(=O)O,–,inactive: -16.8% [at 12 µM]
CCN(CC)C(C)CN1c2ccccc2Sc2ccccc21 (stereo not drawn),–,inactive: -1.15% [at 60.1 µM]
Cc1ncc(CO)c(C=O)c1O,inactive,–
CC(C)(C)[C@]1(O)CCN2CC3c4ccccc4CCc4cccc(c43)[C@@H]2C1 (stereo partly drawn),–,inactive: -10.8% [at 19.4 µM]
CN(C)S(=O)(=O)c1ccc2c(c1)/C(=C/c1cc3c([nH]1)CCCC3)C(=O)N2,inactive,–
C=CCCN(C1CCCC1)S(=O)(=O)c1ccccc1Br,–,inactive: 7.97%
COC(=O)/C(C(C)=O)=C(/C=C/C=C/N(C)C)N(C)C,–,inactive: -17.5%
Oc1cc2c(cc1O)C1c3ccc(O)c(O)c3OCC1(O)C2 (stereo not drawn),active: 22.4 µM and active: 14.1 µM and active: 178 nM,–
CCC(C)Nc1ccc(NC(C)CC)cc1 (stereo not drawn),–,inactive: -0.373%
CSCC(=O)N1CCC(n2nccc2NC(=O)c2ccc3c(c2)OCO3)CC1,active: 79.4 µM,–
C[C@H]1c2cccc(O)c2C(O)=C2C(=O)[C@]3(O)C(O)=C(C(N)=O)C(=O)[C@@H](N(C)C)C3[C@@H](O)C21 (stereo partly drawn),–,inactive: -6.13%
